The supplement of paper PMC10037445
± gives the standard deviation of the averaged measurements. In all, about 2,900 compounds were measured (“NF-kB SEAP reporter activity, fold change vs agonist alone”: median about 0.99, highest 2% from about 2.6 on). Some of the results follow.

Experiments:
RAW-Dual [1] = assay: NF-kB SEAP reporter activity, fold change vs agonist alone; higher = enhanced NF-kB activity; settings: library stock concentration (final ~1000-fold dilution): 10 mM
In short: (§1)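 Cytotoxic wells were those whose IncuCyte confluency was below 70% of agonist controls in both mask sets. The cells were RAW-Dual macrophages at 50,000 cells/well in DMEM on 384-well plates, dosed with 50 nL of library stock by pin tool, stimulated with a PRR agonist 1 h later, and kept at 37 °C, 5% CO2 for 20 hours. IRF and NF-κB reporter activity, as fold change over agonist-alone wells, came from supernatant read by QuantiLuc luminescence and QuantiBlue absorbance, respectively.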

RAW-Dual [2] = assay: NF-kB SEAP reporter activity, fold change vs agonist alone; cytotoxicity flag (confluency mask): not cytotoxic; higher = enhanced NF-kB activity
In short: as §1

RAW-Dual [3] = assay: NF-kB SEAP reporter activity, fold change vs agonist alone; cytotoxicity flag (confluency mask): cytotoxic (confluency <70% of control); higher = enhanced NF-kB activity
In short: as §1

[4] = cytotoxicity flag (confluency mask): not cytotoxic, agonist: Imiquimod (TLR7) […]
[5] = cytotoxicity flag (confluency mask): not cytotoxic, agonist: MPLA (TLR4) […]
[6] = agonist: ODN 1826 (TLR9) 0.5 ug/mL
[7] = agonist: Pam2CSK4 (TLR2/6) 0.1 ug/mL
[8] = agonist: Pam3CSK4 (TLR2/1) 0.1 ug/mL
[9] = cytotoxicity flag (confluency mask): cytotoxic (confluency <70% of control), agonist: Imiquimod (TLR7) […]
[10] = cytotoxicity flag (confluency mask): cytotoxic (confluency <70% of control), agonist: MPLA (TLR4) […]

Compound: CC(NC(=O)c1ccccc1N=Cc1c(O)ccc2ccccc12)c1ccccc1 (centres undefined)
- NF-kB SEAP reporter activity (RAW-Dual [1]; [4]): 1.56
- NF-kB SEAP reporter activity (RAW-Dual [1]; [5]): 2.25

Compound: CC1=CC2(O)OC3(CC2=C(C)C)C(C)CCC13 (centres undefined) (library stock concentration (final ~1000-fold dilution): 10 mM)
- NF-kB SEAP reporter activity (RAW-Dual [2]; agonist: LPS (TLR4) 0.1 ug/mL): 1.04 ± 0.043
- NF-kB SEAP reporter activity (RAW-Dual [2]; [6]): 0.938 ± 0.07
- NF-kB SEAP reporter activity (RAW-Dual [2]; [7]): 0.963 ± 0.062
- NF-kB SEAP reporter activity (RAW-Dual [2]; [8]): 1.06 ± 0.049

Compound: CC1=CC2(O)OC3(CC2=C(C)C)C(C)CCC13 (centres undefined)
- NF-kB SEAP reporter activity (RAW-Dual [1]; [4]): 0.957 ± 0.03
- NF-kB SEAP reporter activity (RAW-Dual [1]; [5]): 1.03 ± 0.025

Compound: COc1cc(O)cc(O)c1C(=O)/C=C/c1ccccc1
- NF-kB SEAP reporter activity (RAW-Dual [1]; [9]): 1.45 ± 0.2
- NF-kB SEAP reporter activity (RAW-Dual [1]; [10]): 0.761 ± 0.14

Compound: COc1cc(O)cc(O)c1C(=O)/C=C/c1ccccc1 (library stock concentration (final ~1000-fold dilution): 10 mM)
- NF-kB SEAP reporter activity (RAW-Dual [3]; agonist: LPS (TLR4) 0.1 ug/mL): 0.394 ± 0.18
- NF-kB SEAP reporter activity (RAW-Dual [3]; [6]): 0.569 ± 0.089
- NF-kB SEAP reporter activity (RAW-Dual [3]; [7]): 1.03 ± 0.34
- NF-kB SEAP reporter activity (RAW-Dual [3]; [8]): 0.635 ± 0.052

Compound: Cc1cnc(NC(=O)C2=C(O)c3ccccc3S(=O)(=O)N2C)s1
- NF-kB SEAP reporter activity (RAW-Dual [1]; [4]): 0.892
- NF-kB SEAP reporter activity (RAW-Dual [1]; [5]): 0.885

Compound: Cc1cnc(NC(=O)C2=C(O)c3ccccc3S(=O)(=O)N2C)s1 (library stock concentration (final ~1000-fold dilution): 10 mM)
- NF-kB SEAP reporter activity (RAW-Dual [2]; agonist: LPS (TLR4) 0.1 ug/mL): 0.983
- NF-kB SEAP reporter activity (RAW-Dual [2]; [6]): 0.981
- NF-kB SEAP reporter activity (RAW-Dual [2]; [7]): 0.95
- NF-kB SEAP reporter activity (RAW-Dual [2]; [8]): 0.918

Compound: CNCCC(Oc1cccc2ccccc12)c1cccs1 (centres undefined)
- NF-kB SEAP reporter activity (RAW-Dual [1]; [10]): 1.98

Compound: CNCCC(Oc1cccc2ccccc12)c1cccs1 (centres undefined) (library stock concentration (final ~1000-fold dilution): 10 mM)
- NF-kB SEAP reporter activity (RAW-Dual [3]; agonist: LPS (TLR4) 0.1 ug/mL): 1.1
- NF-kB SEAP reporter activity (RAW-Dual [3]; [6]): 0.191
- NF-kB SEAP reporter activity (RAW-Dual [3]; [7]): 0.797
- NF-kB SEAP reporter activity (RAW-Dual [3]; [8]): 0.525

Compound: O=C(O)CCCc1ccccc1 (library stock concentration (final ~1000-fold dilution): 10 mM)
- NF-kB SEAP reporter activity (RAW-Dual [2]; agonist: LPS (TLR4) 0.1 ug/mL): 0.948
- NF-kB SEAP reporter activity (RAW-Dual [2]; [6]): 0.937
- NF-kB SEAP reporter activity (RAW-Dual [2]; [7]): 1.1
- NF-kB SEAP reporter activity (RAW-Dual [2]; [8]): 1.19

Compound: O=C(O)CCCc1ccccc1
- NF-kB SEAP reporter activity (RAW-Dual [1]; [4]): 0.936
- NF-kB SEAP reporter activity (RAW-Dual [1]; [5]): 1.08

Compound: CC1(C)OCCn2c1nc1c(N3CCOCC3)nc(-c3cnc(N)nc3)nc12
- NF-kB SEAP reporter activity (RAW-Dual [1]; [4]): 1.02
- NF-kB SEAP reporter activity (RAW-Dual [1]; [5]): 1.07

Compound: CC1(C)OCCn2c1nc1c(N3CCOCC3)nc(-c3cnc(N)nc3)nc12 (library stock concentration (final ~1000-fold dilution): 10 mM)
- NF-kB SEAP reporter activity (RAW-Dual [2]; agonist: LPS (TLR4) 0.1 ug/mL): 1.42
- NF-kB SEAP reporter activity (RAW-Dual [2]; [6]): 0.768
- NF-kB SEAP reporter activity (RAW-Dual [2]; [7]): 0.464
- NF-kB SEAP reporter activity (RAW-Dual [2]; [8]): 0.544

Compound: CS(=O)(=O)O.O=C(OC1CC2CC3CC(C1)N2CC3=O)c1c[nH]c2ccccc12 (centres undefined) (library stock concentration (final ~1000-fold dilution): 10 mM)
- NF-kB SEAP reporter activity (RAW-Dual [2]; agonist: LPS (TLR4) 0.1 ug/mL): 0.646
- NF-kB SEAP reporter activity (RAW-Dual [2]; [6]): 0.571
- NF-kB SEAP reporter activity (RAW-Dual [2]; [7]): 0.906
- NF-kB SEAP reporter activity (RAW-Dual [2]; [8]): 0.497

Compound: CS(=O)(=O)O.O=C(OC1CC2CC3CC(C1)N2CC3=O)c1c[nH]c2ccccc12 (centres undefined)
- NF-kB SEAP reporter activity (RAW-Dual [1]; [4]): 0.712
- NF-kB SEAP reporter activity (RAW-Dual [1]; [5]): 0.75

Compound: COC1=CC(c2cc3ccccc3[nH]2)=N/C1=C\c1[nH]c(C)cc1C.CS(=O)(=O)O
- NF-kB SEAP reporter activity (RAW-Dual [1]; [4]): 1.4
- NF-kB SEAP reporter activity (RAW-Dual [1]; [5]): 2.78

Compound: COC1=CC(c2cc3ccccc3[nH]2)=N/C1=C\c1[nH]c(C)cc1C.CS(=O)(=O)O (library stock concentration (final ~1000-fold dilution): 10 mM)
- NF-kB SEAP reporter activity (RAW-Dual [2]; agonist: LPS (TLR4) 0.1 ug/mL): 8.62
- NF-kB SEAP reporter activity (RAW-Dual [2]; [6]): 1.9
- NF-kB SEAP reporter activity (RAW-Dual [2]; [7]): 2.55
- NF-kB SEAP reporter activity (RAW-Dual [2]; [8]): 3.87

Compound: O=C(Cc1ccccc1)Nc1nnc(NC2CCN(c3nnc(NC(=O)Cc4ccccc4)s3)CC2)s1
- NF-kB SEAP reporter activity (RAW-Dual [1]; [4]): 0.998
- NF-kB SEAP reporter activity (RAW-Dual [1]; [5]): 1.26

Compound: O=C(Cc1ccccc1)Nc1nnc(NC2CCN(c3nnc(NC(=O)Cc4ccccc4)s3)CC2)s1 (library stock concentration (final ~1000-fold dilution): 10 mM)
- NF-kB SEAP reporter activity (RAW-Dual [2]; agonist: LPS (TLR4) 0.1 ug/mL): 1.41
- NF-kB SEAP reporter activity (RAW-Dual [2]; [6]): 0.773
- NF-kB SEAP reporter activity (RAW-Dual [2]; [7]): 0.514
- NF-kB SEAP reporter activity (RAW-Dual [2]; [8]): 0.64

Compound: OC1(c2ccc(Cl)c(C(F)(F)F)c2)CCN(CCCC(c2ccc(F)cc2)c2ccc(F)cc2)CC1
- NF-kB SEAP reporter activity (RAW-Dual [1]; [9]): 0.266
- NF-kB SEAP reporter activity (RAW-Dual [1]; [10]): 0.266

Compound: OC1(c2ccc(Cl)c(C(F)(F)F)c2)CCN(CCCC(c2ccc(F)cc2)c2ccc(F)cc2)CC1 (library stock concentration (final ~1000-fold dilution): 10 mM)
- NF-kB SEAP reporter activity (RAW-Dual [3]; agonist: LPS (TLR4) 0.1 ug/mL): 0.194
- NF-kB SEAP reporter activity (RAW-Dual [3]; [6]): 0.175
- NF-kB SEAP reporter activity (RAW-Dual [3]; [7]): 0.101
- NF-kB SEAP reporter activity (RAW-Dual [3]; [8]): 0.11

Compound: CN(C(=O)CNC(=O)/C=C/c1cccc(Cl)c1)C1CCS(=O)(=O)CC1
- NF-kB SEAP reporter activity (RAW-Dual [1]; [4]): 0.848
- NF-kB SEAP reporter activity (RAW-Dual [1]; [5]): 0.851

Compound: CN(C(=O)CNC(=O)/C=C/c1cccc(Cl)c1)C1CCS(=O)(=O)CC1 (library stock concentration (final ~1000-fold dilution): 10 mM)
- NF-kB SEAP reporter activity (RAW-Dual [2]; agonist: LPS (TLR4) 0.1 ug/mL): 1.01
- NF-kB SEAP reporter activity (RAW-Dual [2]; [6]): 0.874
- NF-kB SEAP reporter activity (RAW-Dual [2]; [7]): 0.449
- NF-kB SEAP reporter activity (RAW-Dual [2]; [8]): 0.519

Compound: O=C1Nc2ccccc2/C1=C1\Nc2ccccc2C1=O (library stock concentration (final ~1000-fold dilution): 10 mM)
- NF-kB SEAP reporter activity (RAW-Dual [2]; agonist: LPS (TLR4) 0.1 ug/mL): 1.12
- NF-kB SEAP reporter activity (RAW-Dual [2]; [6]): 0.972
- NF-kB SEAP reporter activity (RAW-Dual [2]; [7]): 0.69
- NF-kB SEAP reporter activity (RAW-Dual [2]; [8]): 1.02

Compound: O=C1Nc2ccccc2/C1=C1\Nc2ccccc2C1=O
- NF-kB SEAP reporter activity (RAW-Dual [1]; [4]): 0.933
- NF-kB SEAP reporter activity (RAW-Dual [1]; [5]): 1.04

Compound: O=C1c2c(O)cccc2C(C2OC(CO)C(O)C(O)C2O)c2cc(CO)cc(O)c21 (centres undefined) (library stock concentration (final ~1000-fold dilution): 10 mM)
- NF-kB SEAP reporter activity (RAW-Dual [2]; agonist: LPS (TLR4) 0.1 ug/mL): 0.895
- NF-kB SEAP reporter activity (RAW-Dual [2]; [6]): 0.989
- NF-kB SEAP reporter activity (RAW-Dual [2]; [7]): 1.03
- NF-kB SEAP reporter activity (RAW-Dual [2]; [8]): 1.06

Compound: O=C1c2c(O)cccc2C(C2OC(CO)C(O)C(O)C2O)c2cc(CO)cc(O)c21 (centres undefined)
- NF-kB SEAP reporter activity (RAW-Dual [1]; [4]): 0.909
- NF-kB SEAP reporter activity (RAW-Dual [1]; [5]): 0.972
